# Measurements reported in paper PMC12136788.
# The list shows a part of the results.
# T1: UNK ZnF1-3 (human, UniProt Q9C0B0 31-174)
# T1 sequence: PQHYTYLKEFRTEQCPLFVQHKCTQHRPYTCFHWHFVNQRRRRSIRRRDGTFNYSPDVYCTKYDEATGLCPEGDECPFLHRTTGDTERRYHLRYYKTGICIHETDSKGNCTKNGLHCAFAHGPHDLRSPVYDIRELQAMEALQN
# B1: chr16:17428906:17428907:+_ENSMUSG00000022765_ENSMUST00000023449|mus_hu|motif|central (ssRNA)
# RNA: GGGAGUUCUACAGUCCGACGAUCGCGGGGACAUCUGCCAACAAAAGAGCAAGAUGGCACACUCUAUUUCCCAUUCGGACACUGAUCCUUUCUGGGAGGAUGAAAGAAUCACAGAUAAUGUGCUCAGAGAGUGUGUGUGUGUGUCAACAGAGGAUUGAGCAUCA
# B2: chr1:225611761:225611762:-_ENSG00000143815_ENST00000272163|hu_mus|hu_hu_hu_mus_True|8_58 (ssRNA)
# RNA: GGGAGUUCUACAGUCCGACGAUCCCAGGCCAUCGGCCUCUGACCACUUCACCCUCAACAAACUUCCUACUUGGCAUUUUCUAUAAUUAGUCUGGCCGCGCUCCGGCGGGAACUCCAGCCACUCCAGGGAGAAUAGUAGCAGCCCAACAGAGGAUUGAGCAUCA
# B3: chrX:102931257:102931258:-_ENSG00000123562_ENST00000441076|hu_mus|FALSE|FALSE (ssRNA)
# RNA: GGGAGUUCUACAGUCCGACGAUCUAAUGCCAGGCUUUUCUCAUCAAGGGGCGUAUAGGCCAACAUUGCCCCAAUUCUCACGAAUAAUCUCAGGAGGUGUGGCGCCCCAUAGAUCUGCGACAUCGGCGCAUCAGGGUGAGCCAGCAACAGAGGAUUGAGCAUCA
# B4: 75418379_75418499_4881_3pUTR_ENSMUSG00000032186_ENSMUST00000064433|mouse|control|control (ssRNA)
# RNA: GGGAGUUCUACAGUCCGACGAUCCCCUAAGAUGUAUAUUUUAUCUUCUAGUAGUUCCCUUCAAAAUAUAAAUGCUGAUGGAAAUGUCACUUUACAUGCUAGUUAAAAAUCCACGAUGAUAAAACAGCUGAUUAGUAAUAAUCUCAACAGAGGAUUGAGCAUCA
# B5: 64289975_64290095_998_3pUTR_ENSG00000112245_ENST00000370650|human|control|control (ssRNA)
# RNA: GGGAGUUCUACAGUCCGACGAUCAUUAGGCACCCCAAUUUUAUUGAAUGCAACAGUUGUUUCUAUGACCGUUGGAAUCUUUGAAACGCAGCCGCAUUUUAGGACGAUACUUCUCCAAAUACAGAAGUUGCUUGCUGUUAAAAGCAACAGAGGAUUGAGCAUCA
# B6: 125249474_125249594_3487_3pUTR_ENSMUSG00000008683_ENSMUST00000172457|mouse|control|control (ssRNA)
# RNA: GGGAGUUCUACAGUCCGACGAUCAGCUUGACCUCAAUCAAGGCAAAAGCUUACACGUGCAUACAUUUAGUAGUUUACUAAGUAAACAAUUAAGGUCGGUGCUGGCUCACCCCAGCCUUCCUUGAUUGUUCUGAGAACGCGUGGCAACAGAGGAUUGAGCAUCA
# B7: chr5:70837361:70837362:+_ENSG00000145734_ENST00000358731|hu_hu|FALSE|FALSE (ssRNA)
# RNA: GGGAGUUCUACAGUCCGACGAUCUGAUGCAGGAGAUGUAGUAAUGACAGGUGAAGAAAGUUCCUGACAUUCAUGAACAAUUUUGUGAUUUACAUUAUCUAGGCUAGAAGGAAUAUGGCUUUUAUCCUUUGAAUGAACAUGAGGCAACAGAGGAUUGAGCAUCA
# B8: chr2:202488911:202488912:-_ENSG00000155755_ENST00000286196|hu_mus|hu_hu_hu_mus_False|28_28 (ssRNA)
# RNA: GGGAGUUCUACAGUCCGACGAUCAUUGAAACAUUUUUCAUAAUCUCCAGUAGCAUUUCAGCAUUAUGUAACAAAAGCUCAAUUGUAAAUACAUGUAUCUUAUAAAAAUAAAAAUACAAACACGAGUGGGGAGCGCAGGCGCCACAACAGAGGAUUGAGCAUCA
# B9: chr16:94646735:94646736:+_ENSMUSG00000040785_ENSMUST00000117648|mus_mus|FALSE|FALSE (ssRNA)
# RNA: GGGAGUUCUACAGUCCGACGAUCUGUUUUUAACUUUUUCCAGCAGUUCAUAUGAAAUUCUACCUUACAGUAUUGGCAACAGCUAAUUCGUAUAAAACCCUUAAAGUCUGGAUCAGUUAAGUAAAUCUGAAUUUUAGAAUAUCCCAACAGAGGAUUGAGCAUCA
# B10: chr9:91931296:91931297:+_ENSG00000123975_ENST00000314355|hu_hu|hu_hu_hu_mus_True|48_78 (ssRNA)
# RNA: GGGAGUUCUACAGUCCGACGAUCAGAUUAGAUGAUCCCAGCUGCACUUCAUUUUUGUUGAUCUUUUGGAAGAGGUCGUCUAAAGAGAAGAAUAUGUGGUUCUGGCUCAUGAAUCAUGUAAUGAACCCAUCCUAGACUCUGUUGCAACAGAGGAUUGAGCAUCA
# B11: chr7:75932113:75932114:+_ENSG00000106211_ENST00000248553|hu_hu|hu_hu_hu_mus_False|8_38 (ssRNA)
# RNA: GGGAGUUCUACAGUCCGACGAUCCUGCGACCACUCAUCGGGCAACCGGGGCACCCCGAAAGCUUGAUCGAAGAGGCGGCUGUGUGCAGGGUACCAGCGGAAGGGGUGUUCCCAGCUCGGGCUCCGCAGCGAGAAGGAGGGCACCAACAGAGGAUUGAGCAUCA
# B12: 107621200_107626530_929_CDS_ENSG00000091136_ENST00000393561|human|control|control (ssRNA)
# RNA: GGGAGUUCUACAGUCCGACGAUCUCCCAAAGUAUGCAGUUUCACAAACUUGAUUCUCAAGUUGGUAAUUUUUAAUAAAUUCUGUAUCCUUGGGCUAUAAGGAUCUUCUAUUUUGAAAGCAGGAUCUAAAGCACGAAAUAUCACCAACAGAGGAUUGAGCAUCA
# B13: chr9:119461815:119461816:+_ENSG00000119401_ENST00000373983|hu_mus|FALSE|FALSE (ssRNA)
# RNA: GGGAGUUCUACAGUCCGACGAUCCUUGGGUGUGAGGGCGAUGCCCACUGGACAGGUAAGGCCCUCUCGAAUAAGGACGCUGUAGCCACCGCCCUUGGGAAAAUGGAGAAUUUCCUUGCGGCUGCUAUCUGCCACAAUGAGGUCCAACAGAGGAUUGAGCAUCA
# B14: chr1:180971808:180971809:-_ENSG00000135823_ENST00000258301|hu_hu|FALSE|FALSE (ssRNA)
# RNA: GGGAGUUCUACAGUCCGACGAUCUUUUCUUAUACUCAAUUCAGUUGCAUCAAGGUUAAAUUUUCUAGGAUUUGCUUCAACUAUGCUGAUGGUUUCAUCAAGGUCCUCUAGAUCCCACUCUAUGCUCCGGAGGUUAUUUCUCAGCAACAGAGGAUUGAGCAUCA
# B15: 117191750_117192490_1920_CDS_ENSMUSG00000066232_ENSMUST00000084731|mouse|control|control (ssRNA)
# RNA: GGGAGUUCUACAGUCCGACGAUCAUGUGCCAAAGAAAAGAUCUCCUCAUAGAAUUCUAAGACAUGCUGUUGUAGAACGGUCCCAAUGACUUGUAAGCAGAUUCCCUCAAGCUGCUGGGUUAUCUCUUUGUGAUCUUCAACCACCAACAGAGGAUUGAGCAUCA
# B16: 140892577_140894032_266_ncRNA_ENSMUSG00000030979_ENSMUST00000135760|mouse|control|control (ssRNA)
# RNA: GGGAGUUCUACAGUCCGACGAUCCUUCAGGAUGAGACAGCUUUUCUGACAAACUGGGGAGAGACAUAAACUCAAAUGACAGCACAGGAAUCAGUGUGGCUUCUAGGCCACACAAUCGCAGCUCCUGGAUAUAUGGAUCCAGGCCAACAGAGGAUUGAGCAUCA
# B17: chr12:60073987:60073988:-_ENSMUSG00000020986_ENSMUST00000021375|perfect_dup|FALSE|FALSE (ssRNA)
# RNA: GGGAGUUCUACAGUCCGACGAUCCUGGGUCAGAUCCUGACGCAUGAAAUGGUGACGAUAGUAUGAACUCUCAUCAGGACUAUUGUUAAAAACUUGCAAGAAAGGAGAUCUUCUUAAAUGAAACAUAAACUGAGGAUAAAGAGACAACAGAGGAUUGAGCAUCA
# B18: chr1:115279457:115279458:-_ENSG00000009307_ENST00000339438|hu_mus|FALSE|FALSE (ssRNA)
# RNA: GGGAGUUCUACAGUCCGACGAUCGUUAAUUUUAUCUCCAGUUUCCAGCUGAACAUUCCCUUCCACAUCUUCAGAGGUGUAAGUCAGAUAAAAUACUUCCCCAUUACGUUCGUAGCAUACACUCCCUGUUGGACUCUGACCCGGCAACAGAGGAUUGAGCAUCA
# B19: chr9:127920631:127920632:-_ENSG00000119414_ENST00000456642|hu_hu|FALSE|FALSE (ssRNA)
# RNA: GGGAGUUCUACAGUCCGACGAUCAAUACGAUCAGGCCAUUUAGCCUUUAAUGCAAGAAGGUAAGUGAAGGUCUCCAAACUAUAGUAACCUCUGUCUACAAAAUCACCCAUAAAUAUGUAGUUUGUGUCAGGAACCUGACCUCCCAACAGAGGAUUGAGCAUCA
# B20: 86275927_86276047_1213_CDS_ENSMUSG00000042350_ENSMUST00000043169|mouse|control|control (ssRNA)
# RNA: GGGAGUUCUACAGUCCGACGAUCGUGCUCAUCUCUCAGGGACAUGGAAUUGUUGGUUGGGUUGUCAUACUCAUCUCGGGGCACUAUCUGCAGAGUGUGUGGCUGCCCACACGUCAACACCAGAGUAGAAAAAUGGCACACAAUCAACAGAGGAUUGAGCAUCA
# B21: chr14:46222469:46222470:-_ENSMUSG00000037697_ENSMUST00000051310|mus_mus|FALSE|FALSE (ssRNA)
# RNA: GGGAGUUCUACAGUCCGACGAUCACUGUCUGAAACUGAGGUAGGUUCUUUUGCUGGGUUGAGAAAAUUUGGCUUCAUAUGCUCAUAAGGUAGAGGGUUUGAAGUGUUGUACCAGUGGAUCUGGACUGGAGAAAUGUUGCUGUACAACAGAGGAUUGAGCAUCA
# B22: chr1:175956164:175956165:-_ENSG00000143207_ENST00000367666|hu_hu|FALSE|FALSE (ssRNA)
# RNA: GGGAGUUCUACAGUCCGACGAUCAGCAGCAAUCAGCACAUUGGACUCCCCAUCUGGUAGUGCCCUCCAGCACACAGCACUAACAAAUUCAUUUGUAUCAUCUUCUUUUCGGUCUUUGUCGAGAACACUUUUGACUGUAUCAAACAACAGAGGAUUGAGCAUCA
# Target: T1, UNK ZnF1-3
# Assay: nsRBNS (natural sequence RNA bind-n-seq); RBNS binding buffer (assumed for nsRBNS): 25 mM Tris pH 7.5, 150 mM KCl, 3 mM MgCl2, 0.01% Triton X-100, 500 ug/ml BSA, 20 U/ml SUPERase-In, 4 C; UNK is unkempt and MSI1 is Musashi-1; names of the RNAs are library labels; protein concentration not given here; high values mean tight binding
row,Binder,binding signal
1,B1,1.68 enrichment R
2,B2,1.18 enrichment R
3,B3,0.895 enrichment R
4,B4,1.21 enrichment R
5,B5,0.97 enrichment R
6,B6,0.688 enrichment R
7,B7,0.842 enrichment R
8,B8,1.14 enrichment R
9,B9,0.716 enrichment R
10,B10,0.967 enrichment R
11,B11,1.53 enrichment R
12,B12,0.675 enrichment R
13,B13,0.643 enrichment R
14,B14,0.431 enrichment R
15,B15,0.754 enrichment R
16,B16,1.55 enrichment R
17,B17,1.41 enrichment R
18,B18,0.834 enrichment R
19,B19,1.08 enrichment R
20,B20,1.18 enrichment R
21,B21,1.23 enrichment R
22,B22,0.985 enrichment R
